{"source": "paper PMC9911399", "about": "“Two distinct binding modes provide the RNA-binding protein RbFox with extraordinary sequence specificity”", "binders": {"B1": {"name": "ACGAACU (DNA:RNA)", "RNA": "GGGAGACCGGAAUUCAGAUUGUCCACGAACUUUAAAUCCCGUCGUAGCCACCA", "DNA 1": "CAATCTGAATTCCGGTCTCCC", "DNA 2": "TGGTGGCTACGACGGGATT"}, "B2": {"name": "AUAGCGU (DNA:RNA)", "RNA": "B1 RNA with C26U, G27A, A28G, A29C, C30G", "DNA 1": "CAATCTGAATTCCGGTCTCCC", "DNA 2": "TGGTGGCTACGACGGGATT"}, "B3": {"name": "GCGGGAG (DNA:RNA)", "RNA": "B1 RNA with A25G, A28G, A29G, C30A, U31G", "DNA 1": "CAATCTGAATTCCGGTCTCCC", "DNA 2": "TGGTGGCTACGACGGGATT"}, "B4": {"name": "CCUGCUG (DNA:RNA)", "RNA": "B1 RNA with A25C, G27U, A28G, A29C, C30U, U31G", "DNA 1": "CAATCTGAATTCCGGTCTCCC", "DNA 2": "TGGTGGCTACGACGGGATT"}, "B5": {"name": "CCUCUGA (DNA:RNA)", "RNA": "B1 RNA with A25C, G27U, A28C, A29U, C30G, U31A", "DNA 1": "CAATCTGAATTCCGGTCTCCC", "DNA 2": "TGGTGGCTACGACGGGATT"}, "B6": {"name": "UUAUGGU (DNA:RNA)", "RNA": "B1 RNA with A25U, C26U, G27A, A28U, A29G, C30G", "DNA 1": "CAATCTGAATTCCGGTCTCCC", "DNA 2": "TGGTGGCTACGACGGGATT"}, "B7": {"name": "ACGGGGU (DNA:RNA)", "RNA": "B1 RNA with A28G, A29G, C30G", "DNA 1": "CAATCTGAATTCCGGTCTCCC", "DNA 2": "TGGTGGCTACGACGGGATT"}, "B8": {"name": "CGGGGUU (DNA:RNA)", "RNA": "B1 RNA with A25C, C26G, A28G, A29G, C30U", "DNA 1": "CAATCTGAATTCCGGTCTCCC", "DNA 2": "TGGTGGCTACGACGGGATT"}, "B9": {"name": "CGAUGUG (DNA:RNA)", "RNA": "GGGAGACCGGAAUUCAGAUUGUCCCGAUGUGUUAAAUCCCGUCGUAGCCACCA", "DNA 1": "CAATCTGAATTCCGGTCTCCC", "DNA 2": "TGGTGGCTACGACGGGATT"}, "B10": {"name": "AAGUUUC (DNA:RNA)", "RNA": "B1 RNA with C26A, A28U, A29U, C30U, U31C", "DNA 1": "CAATCTGAATTCCGGTCTCCC", "DNA 2": "TGGTGGCTACGACGGGATT"}, "B11": {"name": "UUAAAGG (DNA:RNA)", "RNA": "B1 RNA with A25U, C26U, G27A, C30G, U31G", "DNA 1": "CAATCTGAATTCCGGTCTCCC", "DNA 2": "TGGTGGCTACGACGGGATT"}, "B12": {"name": "CUGACUA (DNA:RNA)", "RNA": "B1 RNA with A25C, C26U, A29C, C30U, U31A", "DNA 1": "CAATCTGAATTCCGGTCTCCC", "DNA 2": "TGGTGGCTACGACGGGATT"}, "B13": {"name": "CUAUACU (DNA:RNA)", "RNA": "B1 RNA with A25C, C26U, G27A, A28U", "DNA 1": "CAATCTGAATTCCGGTCTCCC", "DNA 2": "TGGTGGCTACGACGGGATT"}, "B14": {"name": "GCCUUUA (DNA:RNA)", "RNA": "B9 RNA with C25G, G26C, A27C, G29U, G31A", "DNA 1": "CAATCTGAATTCCGGTCTCCC", "DNA 2": "TGGTGGCTACGACGGGATT"}, "B15": {"name": "GGUGAAG (DNA:RNA)", "RNA": "B9 RNA with C25G, A27U, U28G, G29A, U30A", "DNA 1": "CAATCTGAATTCCGGTCTCCC", "DNA 2": "TGGTGGCTACGACGGGATT"}, "B16": {"name": "UCACACC (DNA:RNA)", "RNA": "B1 RNA with A25U, G27A, A28C, U31C", "DNA 1": "CAATCTGAATTCCGGTCTCCC", "DNA 2": "TGGTGGCTACGACGGGATT"}, "B17": {"name": "AACCAAU (DNA:RNA)", "RNA": "B1 RNA with C26A, G27C, A28C, C30A", "DNA 1": "CAATCTGAATTCCGGTCTCCC", "DNA 2": "TGGTGGCTACGACGGGATT"}, "B18": {"name": "UGACACG (DNA:RNA)", "RNA": "B9 RNA with C25U, U28C, G29A, U30C", "DNA 1": "CAATCTGAATTCCGGTCTCCC", "DNA 2": "TGGTGGCTACGACGGGATT"}, "B19": {"name": "CGAGGUU (DNA:RNA)", "RNA": "B9 RNA with U28G, G31U", "DNA 1": "CAATCTGAATTCCGGTCTCCC", "DNA 2": "TGGTGGCTACGACGGGATT"}, "B20": {"name": "CCCUGUC (DNA:RNA)", "RNA": "B9 RNA with G26C, A27C, G31C", "DNA 1": "CAATCTGAATTCCGGTCTCCC", "DNA 2": "TGGTGGCTACGACGGGATT"}, "B21": {"name": "GAUAUCU (DNA:RNA)", "RNA": "B1 RNA with A25G, C26A, G27U, A29U", "DNA 1": "CAATCTGAATTCCGGTCTCCC", "DNA 2": "TGGTGGCTACGACGGGATT"}, "B22": {"name": "UCUGCGC (DNA:RNA)", "RNA": "B1 RNA with A25U, G27U, A28G, A29C, C30G, U31C", "DNA 1": "CAATCTGAATTCCGGTCTCCC", "DNA 2": "TGGTGGCTACGACGGGATT"}, "B23": {"name": "GAUCUGC (DNA:RNA)", "RNA": "GGGAGACCGGAAUUCAGAUUGUCCGAUCUGCUUAAAUCCCGUCGUAGCCACCA", "DNA 1": "CAATCTGAATTCCGGTCTCCC", "DNA 2": "TGGTGGCTACGACGGGATT"}, "B24": {"name": "CGCCACA (DNA:RNA)", "RNA": "B1 RNA with A25C, C26G, G27C, A28C, U31A", "DNA 1": "CAATCTGAATTCCGGTCTCCC", "DNA 2": "TGGTGGCTACGACGGGATT"}, "B25": {"name": "GUGUUUG (DNA:RNA)", "RNA": "B9 RNA with C25G, G26U, A27G, G29U", "DNA 1": "CAATCTGAATTCCGGTCTCCC", "DNA 2": "TGGTGGCTACGACGGGATT"}, "B26": {"name": "UGUGGAG (DNA:RNA)", "RNA": "B9 RNA with C25U, A27U, U28G, U30A", "DNA 1": "CAATCTGAATTCCGGTCTCCC", "DNA 2": "TGGTGGCTACGACGGGATT"}, "B27": {"name": "CCAUAUG (DNA:RNA)", "RNA": "B9 RNA with G26C, G29A", "DNA 1": "CAATCTGAATTCCGGTCTCCC", "DNA 2": "TGGTGGCTACGACGGGATT"}, "B28": {"name": "CUAAAAC (DNA:RNA)", "RNA": "B1 RNA with A25C, C26U, G27A, C30A, U31C", "DNA 1": "CAATCTGAATTCCGGTCTCCC", "DNA 2": "TGGTGGCTACGACGGGATT"}, "B29": {"name": "UUCCGAC (DNA:RNA)", "RNA": "B23 RNA with G25U, A26U, U27C, U29G, G30A", "DNA 1": "CAATCTGAATTCCGGTCTCCC", "DNA 2": "TGGTGGCTACGACGGGATT"}, "B30": {"name": "UAGUAUC (DNA:RNA)", "RNA": "B1 RNA with A25U, C26A, A28U, C30U, U31C", "DNA 1": "CAATCTGAATTCCGGTCTCCC", "DNA 2": "TGGTGGCTACGACGGGATT"}, "B31": {"name": "UACUGUA (DNA:RNA)", "RNA": "B9 RNA with C25U, G26A, A27C, G31A", "DNA 1": "CAATCTGAATTCCGGTCTCCC", "DNA 2": "TGGTGGCTACGACGGGATT"}}, "note": "Changes are numbered by the printed parent chain; changes in the protein carry UniProt numbers. This is one part of the list.", "data": [{"target": "T1, RBFOX1 RRM (Homo sapiens, UniProt Q9NWB1 109-208)", "T1 sequence": "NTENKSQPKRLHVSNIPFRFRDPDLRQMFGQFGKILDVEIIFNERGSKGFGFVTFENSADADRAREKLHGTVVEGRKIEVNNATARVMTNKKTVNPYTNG", "experiment": "EMSA; HiTS-Eq, 1 nM pool, 10 min; buffer printed only for the single-RNA assays: 10 mM Tris pH 7.5, 150 mM NaCl, 3.4 mM EDTA, 0.001% NP-40, 30 C", "conditions": "tags: His6 N-terminal (pET28a); label: 5' 32P", "summary_of_the_method": "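Purified RbFox RRM (wild type or mutant) was equilibrated for 10 min in 50 µL with 1 nM of a 5′-radiolabelled pool of RNA with 7 randomized nucleotides, its flanks annealed to DNA oligonucleotides, across increasing protein concentrations. Free RNA was separated by 8% native PAGE, excised, reverse-transcribed, PCR-barcoded and sequenced on an Illumina HiSeq 2500. Relative association constants came from read-count changes of each variant against the control reaction, normalised to the cognate motif.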", "values": [{"binder": "B1", "binding signal": "0.00476 KA relative to UGCAUGU"}, {"binder": "B2", "binding signal": "0.00628 KA relative to UGCAUGU"}, {"binder": "B3", "binding signal": "0.0158 KA relative to UGCAUGU"}, {"binder": "B4", "binding signal": "0.0192 KA relative to UGCAUGU"}, {"binder": "B5", "binding signal": "0.0177 KA relative to UGCAUGU"}, {"binder": "B6", "binding signal": "0.0118 KA relative to UGCAUGU"}, {"binder": "B7", "binding signal": "0.0238 KA relative to UGCAUGU"}, {"binder": "B8", "binding signal": "0.0339 KA relative to UGCAUGU"}, {"binder": "B9", "binding signal": "0.015 KA relative to UGCAUGU"}, {"binder": "B10", "binding signal": "0.0115 KA relative to UGCAUGU"}, {"binder": "B11", "binding signal": "0.00496 KA relative to UGCAUGU"}, {"binder": "B12", "binding signal": "0.00689 KA relative to UGCAUGU"}, {"binder": "B13", "binding signal": "0.00396 KA relative to UGCAUGU"}, {"binder": "B14", "binding signal": "0.00729 KA relative to UGCAUGU"}, {"binder": "B15", "binding signal": "0.0202 KA relative to UGCAUGU"}, {"binder": "B16", "binding signal": "0.00176 KA relative to UGCAUGU"}, {"binder": "B17", "binding signal": "0.000388 KA relative to UGCAUGU"}, {"binder": "B18", "binding signal": "0.0135 KA relative to UGCAUGU"}, {"binder": "B19", "binding signal": "0.0152 KA relative to UGCAUGU"}, {"binder": "B20", "binding signal": "0.0142 KA relative to UGCAUGU"}, {"binder": "B21", "binding signal": "0.00629 KA relative to UGCAUGU"}, {"binder": "B22", "binding signal": "0.0191 KA relative to UGCAUGU"}, {"binder": "B23", "binding signal": "0.021 KA relative to UGCAUGU"}, {"binder": "B24", "binding signal": "0.00515 KA relative to UGCAUGU"}, {"binder": "B25", "binding signal": "0.0242 KA relative to UGCAUGU"}, {"binder": "B26", "binding signal": "0.0134 KA relative to UGCAUGU"}, {"binder": "B27", "binding signal": "0.00413 KA relative to UGCAUGU"}, {"binder": "B28", "binding signal": "0.000947 KA relative to UGCAUGU"}, {"binder": "B29", "binding signal": "0.00882 KA relative to UGCAUGU"}, {"binder": "B30", "binding signal": "0.0135 KA relative to UGCAUGU"}, {"binder": "B31", "binding signal": "0.0104 KA relative to UGCAUGU"}]}]}
